From ChEMBL document CHEMBL4888484, “Replenishing the malaria drug discovery pipeline: Screening and hit evaluation of the MMV Hit Generation Library 1 (HGL1) against asexual blood stage Plasmodium falciparum ,using a nano luciferase reporter read-out” (2022)
The whole screen tested about 150,000 compounds, of which about 540 (0.36%) showed an effect of 50% or more. The list shows a part of the results.

system: Plasmodium falciparum; assay: Primary screen in NF54 nanoGlo assay, in single point, at 2uM, 72h; a lower Z score goes with more inhibition; type: functional, Erythrocyte; conditions: timepoint 72 hour

| Structure (SMILES) | % Inhibition [%] | Z score |
| --- | --- | --- |
| Cn1cc(-c2ccc3c(c2)OCC[C@H]2CN(C(=O)c4c(F)cccc4F)CC[C@H]2CC(=O)N3)cn1 | -5 | 0.81 |
| COCCOC[C@H]1CCN(C(=O)c2cc(Br)cn2C)C1 | -4 | 0.36 |
| COc1ccc(CN(CCO)C2CCCCC2)nn1 | -6 | 0.9 |
| CC(C)C(CNC(=O)N1CCS(=O)(=O)CC1C)c1ccccc1 (configuration not stated) | -11 | 1.16 |
| N#CC1CCCC(Nc2cccc(C(=O)NCc3ccccn3)c2)C1 (configuration not stated) | -7 | 0.75 |
| FC(F)(F)c1cnc(NC2CC2)c(Cl)c1 | 2 | -0.38 |
| Cc1cc(CS(=O)(=O)N2C[C@@H](N(C)C)Cc3ccccc32)no1 | -6 | 1.14 |
| Cc1nccn1CCC1CCN(C(=O)[C@@H]2COc3ccccc3C2)CC1 | 3 | -0.51 |
| O=C(CN1CCN(c2ccc(F)c(F)c2)C1=O)NCc1ccco1 | 3 | -0.37 |
| COc1ccc(-c2nnc(-c3ccc(OC)c(S(=O)(=O)N4CCCCCC4)c3)o2)cc1OC | 4 | -0.6 |
| CC1CCC(C)N1C(C)C(=O)N(C)CCc1ccc(F)cc1 (configuration not stated) | -1 | 0.11 |
| Cc1nc(NC(=O)[C@H](Cc2ccccc2)NC(=O)N2CCOCC2)sc1C | -3 | 0.39 |
| O=C(Nc1cccc(S(=O)(=O)N2CCOCC2)c1)[C@@H]1Cc2ccccc2O1 | 13 | -1.65 |
| COc1ccc(C(=O)N2CC[C@H]3NC(=O)N(Cc4ccccc4)C(=O)[C@H]32)cc1 | 25 | -2.88 |
| C[C@H]1COc2ccc(CN3CCOCC3)cc2CN1C(=O)NCCc1ccccc1 | -16 | 1.37 |
| COc1ccccc1[C@H]1CC(=O)Nc2c1c(C)nn2-c1ncnc2[nH]cnc12 | 11 | -1.22 |
| COc1ccc(C(=O)Nc2ccc3c(c2)nc(CN2CCCCCC2)n3C(C)C)cc1 | -7 | 1.14 |
| CCN(Cc1ccncc1C)C[C@H]1CCCCO1 | -10 | 0.98 |
| Cc1nc(C)c(F)c(NC2CCN(S(=O)(=O)C(C)(C)C)CC2)n1 | -5 | 0.83 |
| CC(=O)NC(C)(C)C(=O)NCc1ccc2[nH]cnc2c1 | -10 | 0.95 |
| COc1ncccc1CNC(=O)C(=O)Nc1nc(C)c(C)s1 | 7 | -1.14 |

| Structure (SMILES) | % Inhibition [%] | Z score |
| --- | --- | --- |
| COCCC(=O)N1CCc2c(c(-c3nc(C4CC4)no3)nn2C)C1 | -2 | 0.35 |
| COc1cccc(-n2cc(C(=O)O)c3c2[C@H](C(C)C)CC(=O)N3)c1 | -8 | 0.88 |
| CCC(CC)N1C[C@]23C=C[C@H](O2)C(C(=O)N2CCc4n[nH]cc4C2)C3C1=O (some centres not stated) | -7 | 1.39 |
| COCCCNC(=O)COc1ncnc2oc(C)c(C)c12 | -7 | 0.88 |
| Cc1cccc(-c2nc3ccc(C(=O)N[C@@H](C)CCc4ccccc4)cc3nc2-c2cccc(C)c2)c1 | 5 | -0.63 |
| Cc1ccccc1-n1c(=O)n(Cc2ccccc2)c(=O)c2c1ncn2Cc1ccccc1 | -9 | 1.36 |
| CNCC1CCCN1C(=O)C1CC1c1cccc(C(F)(F)F)c1 (configuration not stated) | -11 | 1.76 |
| Cc1noc(C)c1CCC(=O)OC1CN(c2nc3c(F)cc(F)cc3s2)C1 | -4 | 0.79 |
| O=C(NC[C@@H](C(=O)O)c1ccc(F)cc1)c1cccc(C2CC2)c1 | -8 | 0.92 |
| Cc1cccc(C(=O)NC2CCN([C@@H](C)c3ccncc3)CC2)c1F | -5 | 0.61 |
| Cc1nn(C)c2cc(NC(=O)N3CCO[C@H](C4CCC4)C3)ccc12 | 0 | -0.01 |
| Cc1cc(C(=O)N[C@H]2CCN(Cc3c[nH]c(C#N)c3)C[C@@H]2O)no1 | -11 | 1.44 |
| COc1ccc(CCN(C(=O)[C@@H]2CNC(=O)C2)C2CCCCC2)cc1OC | 3 | -0.51 |
| Cc1nc(-c2cc(S(=O)(=O)N3CCC[C@H](C(=O)Nc4ccc(F)cc4Cl)C3)c(C)s2)no1 | -16 | 1.58 |
| CCc1nnc(NC(=O)Cn2c3c(c(=O)n(C4CCCCC4)c2=O)CCC3)s1 | -18 | 3.15 |
| COC1(OC)CC2(CN(C(=O)c3cccn3C)[C@H]2C(C)C)C1 | -1 | 0.13 |
| NC(=O)C[C@@H](CN1Cc2ccccc2C1=O)c1ccc(Cl)cc1 | -3 | 0.46 |
| CN1CCO[C@@H](CNS(=O)(=O)c2ccc(C3CCCCC3)cc2)C1 | 2 | -0.24 |
| CC(O)c1ccn(Cc2csc(C3CCCO3)n2)n1 (configuration not stated) | -5 | 0.67 |
| COc1ccccc1OCCCNC(C)(C)C | 0 | 0.01 |
| O=C(N[C@H]1CCOC[C@@H]1O)c1ccccn1 | -3 | 0.33 |

| Structure (SMILES) | % Inhibition [%] | Z score |
| --- | --- | --- |
| Cc1ccsc1C(C)NC1CCCC1CO (configuration not stated) | -15 | 2.18 |
| CCOc1cc(C#N)ccc1OCC(=O)NCc1ccc(C(=O)N2CCNC(=O)C2)cc1 | -11 | 1.02 |
| Cc1nc(C)c(CC(=O)NC2CCCCCCC2)c(=O)[nH]1 | -14 | 1.38 |
| CN1CC[C@H](NC(=O)c2ccncc2Cl)C1=O | 0 | -0.02 |
| O=C(NC12CCCN(CC1)C2)c1ccc(Br)cc1F (configuration not stated) | -11 | 2.29 |
| COc1ccc2cc1OCC(=O)N[C@@H](C)C(=O)N(C)CCCCN(C(=O)Cc1cc(F)ccc1F)CCCNC(=O)CC2 | -5 | 1 |
| COc1ccc(CC[C@H](C)Nc2ccc3c(c2)CCC3)cc1 | -3 | 0.48 |
| O=C(Nc1ccc2c(c1)OC1(CCCCC1)O2)c1ccccc1F | -5 | 0.52 |
| CCOC(=O)c1cnn(Cc2csc([C@H](C)OCC)n2)c1C#N | -4 | 0.6 |
| CNC(=O)C[C@H]1CCOC2(CCN(S(=O)(=O)c3cccc4nsnc34)CC2)C1 | -17 | 1.98 |
| C=CCNC(=O)CN1CC2OCCN(Cc3ccccc3)C2C1 (configuration not stated) | 29 | -3.85 |
| Nc1cccc(C(=O)NCCN2CCCCC2=O)n1 | -18 | 1.72 |
| CCN(C)C1(CNS(=O)(=O)c2cn[nH]c2)CCCCC1 | -6 | 0.56 |
| Cc1cc(C)n(-c2cnc3c(-c4ccccn4)cnn3c2-c2ccccc2)n1 | 29 | -3.8 |
| CCc1cccc(N2C(=O)CN(S(=O)(=O)c3ccc(C)cc3)C[C@@]2(C)C(=O)NCCC(C)C)c1 | -9 | 1.07 |
| COc1ccc(S(=O)(=O)Nc2cnc(N(C)C)nc2)cc1Cl | 1 | -0.23 |
| O[C@H]1CN(Cc2cnn(-c3ccccc3)c2)CC[C@@H]1N1CCCCCC1 | -11 | 1.49 |
| COc1cccc(CN2CCC[C@@]3(CCN(C(=O)c4[nH]cnc4C)C3)C2=O)c1OC | -16 | 1.45 |
| COc1ccccc1C1(Cn2nnnc2N(C)C[C@H]2CCOC2)CC1 | -10 | 1.93 |
| COC(=O)C[C@]1(C(=O)OC)N[C@@H](c2ccccc2C)[C@H]2C(=O)N(C)C(=O)[C@H]21 | 0 | -0.06 |
| CN(C(=O)COc1ccc(-c2ncccn2)cc1CN1CCN(c2ccccc2)CC1)C1CCCCC1 | 7 | -0.96 |

| Structure (SMILES) | % Inhibition [%] | Z score |
| --- | --- | --- |
| CCN(CC)C(=O)CCC(=O)N1CC2(CCC2)[C@H]1c1ccccc1 | -5 | 0.78 |
| Cc1cccc(-c2ccc(C(=O)N[C@@H]3C(=O)NCC34CCOCC4)n2C)c1 | -13 | 2.09 |
| CCN1CCN(c2nc3ccccc3nc2[C@@H](C#N)S(=O)(=O)c2ccccc2)CC1 | -5 | 0.45 |
| CC1(C(=O)N2C[C@H](C(=O)O)[C@@H](c3ccccc3)C2)CCCOC1 (some centres not stated) | -8 | 1 |
| O=C(O)c1ccc2c(c1)ncn2Cc1cccnc1 | -10 | 1.2 |
| CCn1c2c(c(=O)n3ncc(C(=O)NCC4CCN(Cc5cccc(Cl)c5)CC4)c13)CN(Cc1ccc(OC)cc1)CC2 | -16 | 1.52 |
| CCN1C(=O)C[C@H](C(=O)Nc2cnc3ccccc3c2)[C@H]1c1nccn1CC | 23 | 0.68 |
| CC(C)(C)OC(=O)N1CCCC(CCNC(=O)CC2CCCO2)C1 (configuration not stated) | 8 | -1.12 |
| O=C(CCn1nnc2cc(-c3noc(-c4ccc(F)c(F)c4)n3)ccc21)N1CCCCC1 | -23 | 4.53 |
| O=C(NC(C1CC1)C1CC1)c1cc(C2CC2)[nH]n1 | 3 | -0.63 |
| COC(CNC(=O)C1(C)CCCCN1)c1ccccc1 (configuration not stated) | -9 | 1.07 |
| COc1c(Br)cccc1C(=O)NCCc1cn(C)cn1 | -8 | 1.49 |
| C[C@](O)(CNC(=O)Nc1nncs1)c1ccco1 | -8 | 1.19 |
| C[C@H](Oc1cccc(CO)c1)C(=O)N1CCC(c2ccccc2)CC1 | 19 | -2.42 |
| COc1ccccc1N1CCN(Cc2ncccc2C(=O)O)CC1 | 0 | 0.08 |
| O=C(NCCN1CCCC1)C(CN(Cc1ccc2c(c1)OCO2)CC1CCCO1)Oc1ccccc1F (configuration not stated) | 10 | -0.92 |
| Cc1cccc(CNC(=O)[C@]2(C)Cn3nc(-c4cccs4)cc3C(=O)N2c2cccc(C)c2C)c1 | -4 | 0.82 |
| CC(=O)N1CCCN(C(=O)c2cc(C)nc3cc(Br)ccc23)CC1 | -13 | 2.63 |
